Laboratory results taken from PubChem BioAssay AID624417 (National Center for Advancing Translational Sciences (NCATS), 2012).
Screen size: about 410,000 compounds; about 6,400 (1.6%) were called active. Inconclusive means that the source gave no clear call. Such entries were picked first, then a sample of the others. Calls follow the shape of the dose curve; as a rule, active = well fitted inhibition curve with a large enough effect; inconclusive = small, poorly fitted or top-dose-only effect; inactive = no such curve, though single readings can be large or run the other way. Potencies beside an inconclusive call are fits to weak or partial responses and may not hold up.

Target: Glucagon-like peptide 1 receptor (Homo sapiens) (UniProt P43220)
Chain of UniProt P43220 (P43220 whole entry, looked up): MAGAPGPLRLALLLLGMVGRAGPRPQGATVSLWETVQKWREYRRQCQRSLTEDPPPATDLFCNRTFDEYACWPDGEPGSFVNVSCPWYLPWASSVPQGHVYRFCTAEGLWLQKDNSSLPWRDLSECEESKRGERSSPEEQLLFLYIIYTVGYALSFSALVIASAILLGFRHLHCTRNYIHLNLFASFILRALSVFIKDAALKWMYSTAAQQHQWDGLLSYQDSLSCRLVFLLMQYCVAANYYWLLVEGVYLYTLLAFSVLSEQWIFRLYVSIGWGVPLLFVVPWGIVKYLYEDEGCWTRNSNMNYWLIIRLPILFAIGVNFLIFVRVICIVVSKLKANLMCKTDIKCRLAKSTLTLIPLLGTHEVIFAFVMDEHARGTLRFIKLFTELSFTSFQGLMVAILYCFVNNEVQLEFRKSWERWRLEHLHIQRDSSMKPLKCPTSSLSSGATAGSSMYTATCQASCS
Experiment: qHTS of GLP-1 Receptor Inverse Agonists (Inhibition Mode); also: nearly all actives have a fitted effect of over 55% in size
Conditions: HEK293 GLP-1R CRE-luciferase, luminescence, 24 h, GLP-1R form is constitutively active; activity change, negative = inhibition: at 38.3 µM (top of the series) unless noted
In short: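 Cells are plated, allowed 12 hours at 37 deg C, then treated with compounds for 24 hr before luciferase detection reagent is added and luminescence is read after 12 min at room temperature. The HEK293 line carries constitutively active GLP-1R with a cAMP-responsive reporter.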
% is scaled to controls: 0 for no effect and ±100 for the full control effect; potency is read from the fitted curve at half-maximal effect; tags tell the direction and shape of the fitted curve.

Activity change, negative = inhibition, inactive:
CC(C)CC(=O)Nc1ccc2nc(SCC(=O)N3CCc4ccccc43)sc2c1 -21.5%, CCOc1ccccc1CNC(=O)c1sc2ncccc2c1-n1cccc1 22.7%, Cc1c(Cl)cccc1NC(=O)NCc1cccnc1 2.81%, CCOc1ccc(NC(=O)Cc2ccc(S(=O)(=O)N3CCOCC3)s2)cc1OCC -15.8%, O=C(COc1ccccc1Cl)Nc1ccc(OCc2cc(=O)n3ccsc3n2)cc1 6.94%, Cc1ccc(C(=O)C2CCN(CC(=O)Nc3ccc4c(c3)OCCO4)CC2)cc1 0%, CCc1cc(=O)oc2c3c(cc(OCC(=O)NCCCC(=O)O)c12)OC(C)(C)CC3 11.5%, CC(C)c1nc2sc3c(=O)[nH]cnc3c2c2c1CCCC2 4.36%, Fc1cnc(N2CCN(c3ccccc3)CC2)nc1N1CCN(c2ccccc2)CC1 31.7%, COc1ccc(N=c2oc3ccc(OC)cc3cc2-c2nc3ccccc3[nH]2)cc1 -12.3%, CCOc1ccc(S(=O)(=O)N2CCOCC2)cc1NC(=O)c1ccccc1F 14.8%, O=[N+]([O-])c1ccc2c(c1)Cc1cc(F)ccc1-2 29.9%, CC1=C(C(=O)Nc2cccnc2)C(c2ccc(F)cc2)n2nc(-c3cccc(C)c3)nc2N1 (centres undefined) 10.6%, Cc1cc(C)c2nc(N(Cc3cccnc3)C(=O)CCS(=O)(=O)c3ccccc3)sc2c1 12.3%, COC(=O)C1=CN(c2ccc(OC)cc2)C=C(C(=O)OC)C1c1ccc([N+](=O)[O-])cc1 9.86%

Potency, inconclusive:
COc1ccccc1NC(=O)c1ccc(C)c(S(=O)(=O)N2CCCCC2)c1 28.2 µM [inhibitor, partial curve, poor fit], COc1ccc(CNC(=O)C(Cc2ccccc2)n2cccc2)cc1 (centres undefined) 28.2 µM [inhibitor, single point], Cc1ccc(C(C)C)c(OCC(O)CNC2CCCC2)c1 (centres undefined) 11.2 µM [inhibitor, partial curve, poor fit], Cc1ccc(CN(C(=O)c2ccc(C(C)(C)C)cc2)c2ccccn2)o1 12.6 µM [inhibitor, partial curve, poor fit], Oc1cccc(-n2nnnc2SCc2ccccc2F)c1 28.2 µM [inhibitor, single point], Oc1ccccc1-c1nc(-c2cccs2)c(-c2cccs2)[nH]1 15.8 µM [inhibitor, single point], CC1CCN(C(=O)COC(=O)c2c[nH]c3ccccc23)CC1 5.01 µM [inhibitor, full curve, poor fit], CC1=NN(C(N)=S)C(=O)C1N=Nc1ccccc1 (centres undefined) 1.12 µM [inhibitor, full curve, poor fit], CC1(C)CC(=O)C(Br)=C(O)C1 11.2 µM [inhibitor, single point], CN1CCSc2ccc(C(=O)NCc3cccc(Br)c3)cc21 28.2 µM [inhibitor, single point], O=C(O)C1CC(c2ccccc2)=Nc2ccccc2S1 (centres undefined) 28.2 µM [inhibitor, single point], COc1ccccc1C(=O)NNC1=C(C(=O)C(F)(F)F)CCC1 17.8 µM [inhibitor, single point], CC(C)(C)NC(=O)C1C(c2ccc(C(F)(F)F)cc2)=Nc2ccccc2N1C(=O)c1cccc(C(F)(F)F)c1 (centres undefined) 28.2 µM [inhibitor, single point], COc1cc2c(cc1OC)C(c1c(Cl)cccc1Cl)=NCC2 1.41 µM [inhibitor, full curve, poor fit], O/C(=C\c1ccc2ccccc2n1)c1ccc(O)cc1O 28.2 µM [inhibitor, single point], Cc1ccc(SCc2ccc(C(=O)N3CCCC3)cc2)cc1 28.2 µM [inhibitor, single point], Cc1cccc(-n2ccnc2SCC(=O)Nc2cccc3ccccc23)c1 28.2 µM [inhibitor, single point], CCCN(CCC)C1=N/C(=C\c2ccco2)C(=O)N1c1ccccc1 11.2 µM [inhibitor, partial curve, poor fit], CN1CCN(CCCCOc2ccccc2-c2ccccc2)CC1 12.6 µM [inhibitor, partial curve, poor fit], O=C(c1cc2ccccc2o1)N1CCN(c2ccccc2Cl)CC1 28.2 µM [inhibitor, single point], O=C(NNC(=O)c1cccc(S(=O)(=O)N2CCc3ccccc32)c1)c1ccccc1 3.55 µM [inhibitor, partial curve, poor fit], NS(=O)(=O)c1ccc(NC(=O)COC(=O)C2(c3ccccc3F)CCCC2)cc1 0.501 µM [inhibitor, full curve, poor fit], O=C(Nc1ccccc1)C1=C[C@@H](c2ccc(C(F)(F)F)cc2)C[C@@H](OCc2ccc(CO)cc2)O1 10 µM [inhibitor, partial curve, poor fit], C=CCC[C@@H](Cc1ccc(F)cc1)C(=O)OCCNC(=O)[C@@H](CC=C)CC(=O)N(CCO)Cc1ccccc1 10 µM [inhibitor, partial curve, poor fit], COc1cc(C(=O)OCC(=O)Nc2cccc(S(=O)(=O)N3CCCC3)c2)ccc1OCC(C)C 10 µM [inhibitor, partial curve, poor fit], COc1ccc(C(C)(C)C)cc1S(=O)(=O)N1CCN(C)CC1 3.55 µM [inhibitor, partial curve, poor fit], Cc1ccc(-c2cc(N)nc(-c3ccccc3)c2)cc1 31.6 µM [inhibitor, single point], C[C@H]1Oc2ccccc2C(=O)C1C(=O)c1ccccc1 (some centres undefined) 10 µM [inhibitor, partial curve, poor fit], N#C/C(=C\c1ccccc1[N+](=O)[O-])C(=O)NC1CCCCC1 12.6 µM [inhibitor, partial curve, poor fit], COc1ccccc1CNC(=O)C1(c2cccs2)CCOCC1 2.82 µM [inhibitor, partial curve], COc1ccc(-c2nc3nc(C)cc(C)n3c2Nc2c(C)cccc2C)cc1 14.1 µM [inhibitor, partial curve, poor fit], CCOC(=O)c1c(NC(=O)CS(=O)(=O)c2cn(CC)c3ccccc23)sc2c1CCCCC2 28.2 µM [inhibitor, single point], CC(NC(=O)/C(C#N)=C/c1cccs1)c1ccccc1 (centres undefined) 31.6 µM [inhibitor, partial curve, poor fit], COc1cccc(NCc2cc3c(C(C)(C)C)nn(-c4ccccc4)c3[nH]c2=O)c1 22.4 µM [inhibitor, single point], O=C(CN1CCSC1=NCc1ccccc1)c1ccc(Cl)c(Cl)c1 11.2 µM [inhibitor, single point], Cc1cccc(-c2cc(C(=O)NCc3ccccn3)c3ccccc3n2)c1 10 µM [inhibitor, single point], CCc1ccc2oc(C(=O)NCC(c3ccc(OC)cc3)N3CCCCC3)c(C)c2c1 (centres undefined) 3.16 µM [inhibitor, partial curve, poor fit], COc1ccc(Nc2nc(C(=O)NCc3ccco3)cs2)cc1 7.08 µM [inhibitor, partial curve, poor fit], C=CCn1c(SC)nc2sc3c(c2c1=O)CCc1ccccc1-3 4.47 µM [inhibitor, partial curve], CCCN1CCN(CCCNC(=O)c2ccc3nc(N4CCC(C)CC4)sc3c2)CC1 0.891 µM [inhibitor, full curve, poor fit], O=C(CCl)Nc1ccc(Sc2ccc(NC(=O)CCl)cc2)cc1 10 µM [inhibitor, single point], O=S(=O)(c1cccc(COc2ccc(Cl)cc2Cl)c1)N1CCOCC1 28.2 µM [inhibitor, single point], CCC1Nc2ncnc(N3CCN(c4ccccc4)CC3)c2N(Cc2ccc(C)cc2)C1=O (centres undefined) 28.2 µM [inhibitor, single point], C/C(=N\NC(=O)c1ccc(-c2ccccc2)cc1)C1C(=O)c2ccccc2C1=O 5.62 µM [inhibitor, partial curve, poor fit], c1ccc(CN(Cc2ccccc2)c2ncnc3c2nnn3Cc2ccccc2)cc1 3.55 µM [inhibitor, partial curve], Cc1nc2cc(NC(=O)N3c4ccccc4CC3C)ccc2n1C (centres undefined) 10 µM [inhibitor, partial curve], Nc1nnc(SCC(=O)Nc2sc3c(c2C(=O)c2ccccc2)CCCC3)s1 12.6 µM [inhibitor, single point], CCc1ccccc1NC(=O)Cn1nc2c3cc(F)ccc3n(Cc3cccc(C)c3)cc-2c1=O 6.31 µM [inhibitor, partial curve, poor fit], O=S(=O)(c1ccc2ccccc2c1)N1CCCCCC1 10 µM [inhibitor, partial curve, poor fit]
